Test in all cases: cell-based or functional assay
Experiment [1] deals with T1, intermediate-affinity hIL-2 receptor (IL-2Rβγ) on TF1+IL-2Rβ cells (human, UniProt P14784 27-551; P31785 23-369).
T1 sequence 1: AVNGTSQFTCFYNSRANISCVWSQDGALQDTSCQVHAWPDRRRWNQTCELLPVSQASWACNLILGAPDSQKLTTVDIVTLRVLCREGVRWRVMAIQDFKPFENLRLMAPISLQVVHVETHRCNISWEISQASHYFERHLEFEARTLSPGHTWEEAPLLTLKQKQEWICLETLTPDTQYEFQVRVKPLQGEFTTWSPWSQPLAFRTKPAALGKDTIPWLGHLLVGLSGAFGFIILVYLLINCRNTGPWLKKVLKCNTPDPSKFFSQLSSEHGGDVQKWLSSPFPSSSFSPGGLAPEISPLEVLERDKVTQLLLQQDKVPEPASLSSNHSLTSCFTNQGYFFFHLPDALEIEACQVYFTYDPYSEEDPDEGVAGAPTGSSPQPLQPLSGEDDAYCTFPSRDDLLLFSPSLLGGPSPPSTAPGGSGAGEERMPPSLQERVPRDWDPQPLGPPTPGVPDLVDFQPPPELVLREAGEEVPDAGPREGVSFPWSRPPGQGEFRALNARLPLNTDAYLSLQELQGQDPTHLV
T1 sequence 2: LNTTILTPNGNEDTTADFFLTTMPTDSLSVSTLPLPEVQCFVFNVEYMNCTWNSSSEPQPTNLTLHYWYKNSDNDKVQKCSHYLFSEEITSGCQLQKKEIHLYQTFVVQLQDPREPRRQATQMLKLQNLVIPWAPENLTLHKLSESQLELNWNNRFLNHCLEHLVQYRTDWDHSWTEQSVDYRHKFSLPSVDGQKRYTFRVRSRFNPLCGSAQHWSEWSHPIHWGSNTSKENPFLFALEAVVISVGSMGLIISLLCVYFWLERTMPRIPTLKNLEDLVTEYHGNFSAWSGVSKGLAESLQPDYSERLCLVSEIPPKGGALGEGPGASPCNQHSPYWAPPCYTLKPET

Experiment [2] addresses T2, high-affinity hIL-2 receptor (IL-2Rαβγ) on NK-92 cells (human, UniProt P01589 22-272; P14784 27-551; P31785 23-369).
T2 sequence 1: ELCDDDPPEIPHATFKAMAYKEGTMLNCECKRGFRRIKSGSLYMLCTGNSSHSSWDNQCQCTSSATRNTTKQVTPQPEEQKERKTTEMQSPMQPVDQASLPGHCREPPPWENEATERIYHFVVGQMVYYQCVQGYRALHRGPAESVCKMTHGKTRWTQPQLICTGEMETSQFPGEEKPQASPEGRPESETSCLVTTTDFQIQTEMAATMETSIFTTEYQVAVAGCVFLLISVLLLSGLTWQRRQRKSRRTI
T2 sequence 2: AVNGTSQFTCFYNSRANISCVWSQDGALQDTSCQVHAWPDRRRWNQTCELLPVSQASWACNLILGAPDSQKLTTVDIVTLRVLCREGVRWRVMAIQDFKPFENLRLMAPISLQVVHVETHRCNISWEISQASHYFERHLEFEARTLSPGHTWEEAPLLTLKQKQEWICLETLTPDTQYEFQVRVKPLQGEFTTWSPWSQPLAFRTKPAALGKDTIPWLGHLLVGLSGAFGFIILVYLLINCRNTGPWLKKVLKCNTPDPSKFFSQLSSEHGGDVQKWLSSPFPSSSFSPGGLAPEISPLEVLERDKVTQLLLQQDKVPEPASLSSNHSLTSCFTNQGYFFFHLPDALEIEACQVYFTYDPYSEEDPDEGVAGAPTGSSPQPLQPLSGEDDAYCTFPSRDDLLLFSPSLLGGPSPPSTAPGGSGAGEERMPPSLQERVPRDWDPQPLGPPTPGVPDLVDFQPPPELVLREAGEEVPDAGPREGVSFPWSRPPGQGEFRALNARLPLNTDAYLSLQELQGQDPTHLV
T2 sequence 3: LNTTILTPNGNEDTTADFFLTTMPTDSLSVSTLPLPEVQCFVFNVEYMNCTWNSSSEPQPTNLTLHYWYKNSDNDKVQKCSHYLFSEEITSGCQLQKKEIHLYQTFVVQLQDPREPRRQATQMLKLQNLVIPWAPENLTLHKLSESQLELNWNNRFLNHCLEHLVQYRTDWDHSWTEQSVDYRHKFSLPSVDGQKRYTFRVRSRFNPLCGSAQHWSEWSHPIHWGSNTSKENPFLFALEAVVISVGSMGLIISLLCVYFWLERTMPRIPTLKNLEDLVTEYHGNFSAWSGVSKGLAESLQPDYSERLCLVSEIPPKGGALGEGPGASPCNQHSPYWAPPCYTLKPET

Experiment [3] has as its target T1, intermediate-affinity hIL-2 receptor …. The source holds these as a separate data set.

B1: 1H3-hIgG4-L6-hIL-2 (D20A/R38D) (other)
heavy: EVQLVESGGGLVQPGRSLKLSCAVSGFTFSDYAMAWVRQAPKKGLEWVATISYDGSRTYYRDSVKGRFTISRDNAKITLYLQMDSLRSEDTATYYCARHGSGYFDYWGQGVMVTVSSASTKGPSVFPLAPCSRSTSESTAALGCLVKDYFPEPVTVSWNSGALTSGVHTFPAVLQSSGLYSLSSVVTVPSSSLGTKTYTCNVDHKPSNTKVDKRV[not shown - about 350 residues with a human IgG4 Fc and changes]
light: DTVLTQSPALAVSPGERVTISCRASESVRTGVHWYQQKPGQQPKLLIYGASNLESGVPARFSGSGSGTDFTLTIDPVEADDTATYFCQQSWNDPFTFGSGTKLEIKRTVAAPSVFIFPPSDEQLKSGTASVVCLLNNFYPREAKVQWKVDNALQSGNSQESVTEQDSKDSTYSLSSTLTLSKADYEKHKVYACEVTHQGLSSPVTKSFNRGEC
Consider B1, for which the “Fold decrease from rhIL-2 (TF1 + IL-2Rβ + hPD-1)” value (from here on “Fold decrease”) in experiment [1] was roughly 2960 fold. For the same molecule, in experiment [2], the “Agonistic Activity (NK-92)” value was determined as 90% and the “Fold change from rhIL-2 (NK-92)” value was roughly 118 fold. Also, in experiment [3], the “Agonistic Activity (TF1 + IL-2Rβ)” value came out at 90% and the “Fold change from rhIL-2 (TF1 + IL-2Rβ)” value is roughly 8590 fold.

B2: 1H3-hIgG4-L6-hIL-2 (D20A/R38Q/E95A) (other)
heavy: EVQLVESGGGLVQPGRSLKLSCAVSGFTFSDYAMAWVRQAPKKGLEWVATISYDGSRTYYRDSVKGRFTISRDNAKITLYLQMDSLRSEDTATYYCARHGSGYFDYWGQGVMVTVSSASTKGPSVFPLAPCSRSTSESTAALGCLVKDYFPEPVTVSWNSGALTSGVHTFPAVLQSSGLYSLSSVVTVPSSSLGTKTYTCNVDHKPSNTKVDKRV[not shown - human IgG4 Fc with S228P (EU numbers)]SGGGGSAPTSSSTKKTQLQLEHLLLALQMILNGINNYKNPKLTQMLTFKFYMPKKATELKHLQCLEEELKPLEEVLNLAQSKNFHLRPRDLISNINVIVLALKGSETTFMCEYADETATIVEFLNRWITFCQSIISTLT
light: DTVLTQSPALAVSPGERVTISCRASESVRTGVHWYQQKPGQQPKLLIYGASNLESGVPARFSGSGSGTDFTLTIDPVEADDTATYFCQQSWNDPFTFGSGTKLEIKRTVAAPSVFIFPPSDEQLKSGTASVVCLLNNFYPREAKVQWKVDNALQSGNSQESVTEQDSKDSTYSLSSTLTLSKADYEKHKVYACEVTHQGLSSPVTKSFNRGEC
For the molecule B2, the “Fold decrease” value in experiment [1] was roughly 3540 fold. Also, the “Fold change from rhIL-2 (NK-92)” value in experiment [2] stood at 153 fold. Moreover, in experiment [3], the “Fold change from rhIL-2 (TF1 + IL-2Rβ)” value is roughly 5740 fold.

B3: 1H3-hIgG4-L6-hIL-2 (R38E/I92D) (other)
heavy: EVQLVESGGGLVQPGRSLKLSCAVSGFTFSDYAMAWVRQAPKKGLEWVATISYDGSRTYYRDSVKGRFTISRDNAKITLYLQMDSLRSEDTATYYCARHGSGYFDYWGQGVMVTVSSASTKGPSVFPLAPCSRSTSESTAALGCLVKDYFPEPVTVSWNSGALTSGVHTFPAVLQSSGLYSLSSVVTVPSSSLGTKTYTCNVDHKPSNTKVDKRV[not shown - about 350 residues with a human IgG4 Fc and changes]
light: DTVLTQSPALAVSPGERVTISCRASESVRTGVHWYQQKPGQQPKLLIYGASNLESGVPARFSGSGSGTDFTLTIDPVEADDTATYFCQQSWNDPFTFGSGTKLEIKRTVAAPSVFIFPPSDEQLKSGTASVVCLLNNFYPREAKVQWKVDNALQSGNSQESVTEQDSKDSTYSLSSTLTLSKADYEKHKVYACEVTHQGLSSPVTKSFNRGEC
For the molecule B3, in experiment [1], the “Fold decrease” value is roughly 1890 fold. Further, the “Fold change from rhIL-2 (NK-92)” value in experiment [2] is roughly 377 fold. In addition, in experiment [3], the “Fold change from rhIL-2 (TF1 + IL-2Rβ)” value is 296 fold.

B4: 1H3-hIgG4-L6-hIL-2 (T3A/D20A/R38E) (other)
heavy: EVQLVESGGGLVQPGRSLKLSCAVSGFTFSDYAMAWVRQAPKKGLEWVATISYDGSRTYYRDSVKGRFTISRDNAKITLYLQMDSLRSEDTATYYCARHGSGYFDYWGQGVMVTVSSASTKGPSVFPLAPCSRSTSESTAALGCLVKDYFPEPVTVSWNSGALTSGVHTFPAVLQSSGLYSLSSVVTVPSSSLGTKTYTCNVDHKPSNTKVDKRV[not shown - human IgG4 Fc with S228P (EU numbers)]SGGGGSAPASSSTKKTQLQLEHLLLALQMILNGINNYKNPKLTEMLTFKFYMPKKATELKHLQCLEEELKPLEEVLNLAQSKNFHLRPRDLISNINVIVLELKGSETTFMCEYADETATIVEFLNRWITFCQSIISTLT
light: DTVLTQSPALAVSPGERVTISCRASESVRTGVHWYQQKPGQQPKLLIYGASNLESGVPARFSGSGSGTDFTLTIDPVEADDTATYFCQQSWNDPFTFGSGTKLEIKRTVAAPSVFIFPPSDEQLKSGTASVVCLLNNFYPREAKVQWKVDNALQSGNSQESVTEQDSKDSTYSLSSTLTLSKADYEKHKVYACEVTHQGLSSPVTKSFNRGEC
In the case of B4, the “Fold decrease” value in experiment [1] was roughly 9170 fold. For the same molecule, in experiment [2], the “Agonistic Activity (NK-92)” value came out at 40% and the “Fold change from rhIL-2 (NK-92)” value was greater than 10000 fold. In experiment [3], the “Agonistic Activity (TF1 + IL-2Rβ)” value worked out at 70% and the “Fold change from rhIL-2 (TF1 + IL-2Rβ)” value was greater than 10000 fold.

B5: 1H3-hIgG4-L6-hIL-2 (F42H/I92D) (other)
heavy: EVQLVESGGGLVQPGRSLKLSCAVSGFTFSDYAMAWVRQAPKKGLEWVATISYDGSRTYYRDSVKGRFTISRDNAKITLYLQMDSLRSEDTATYYCARHGSGYFDYWGQGVMVTVSSASTKGPSVFPLAPCSRSTSESTAALGCLVKDYFPEPVTVSWNSGALTSGVHTFPAVLQSSGLYSLSSVVTVPSSSLGTKTYTCNVDHKPSNTKVDKRV[not shown - about 350 residues with a human IgG4 Fc and changes]
light: DTVLTQSPALAVSPGERVTISCRASESVRTGVHWYQQKPGQQPKLLIYGASNLESGVPARFSGSGSGTDFTLTIDPVEADDTATYFCQQSWNDPFTFGSGTKLEIKRTVAAPSVFIFPPSDEQLKSGTASVVCLLNNFYPREAKVQWKVDNALQSGNSQESVTEQDSKDSTYSLSSTLTLSKADYEKHKVYACEVTHQGLSSPVTKSFNRGEC
Regarding B5, the “Fold decrease” value in experiment [1] is roughly 2020 fold. Also, in experiment [2], the “Fold change from rhIL-2 (NK-92)” value was roughly 794 fold. The “Fold change from rhIL-2 (TF1 + IL-2Rβ)” value in experiment [3] worked out at 393 fold.

B6: 1H3-hIgG4-L6-hIL-2 (D20A/F42H/E95A) (other)
heavy: EVQLVESGGGLVQPGRSLKLSCAVSGFTFSDYAMAWVRQAPKKGLEWVATISYDGSRTYYRDSVKGRFTISRDNAKITLYLQMDSLRSEDTATYYCARHGSGYFDYWGQGVMVTVSSASTKGPSVFPLAPCSRSTSESTAALGCLVKDYFPEPVTVSWNSGALTSGVHTFPAVLQSSGLYSLSSVVTVPSSSLGTKTYTCNVDHKPSNTKVDKRV[not shown - human IgG4 Fc with S228P (EU numbers)]SGGGGSAPTSSSTKKTQLQLEHLLLALQMILNGINNYKNPKLTRMLTHKFYMPKKATELKHLQCLEEELKPLEEVLNLAQSKNFHLRPRDLISNINVIVLALKGSETTFMCEYADETATIVEFLNRWITFCQSIISTLT
light: DTVLTQSPALAVSPGERVTISCRASESVRTGVHWYQQKPGQQPKLLIYGASNLESGVPARFSGSGSGTDFTLTIDPVEADDTATYFCQQSWNDPFTFGSGTKLEIKRTVAAPSVFIFPPSDEQLKSGTASVVCLLNNFYPREAKVQWKVDNALQSGNSQESVTEQDSKDSTYSLSSTLTLSKADYEKHKVYACEVTHQGLSSPVTKSFNRGEC
B6: the “Fold decrease” value in experiment [1] was roughly 657 fold. Further, the “Fold change from rhIL-2 (NK-92)” value in experiment [2] is greater than 10000 fold. Further, the “Fold change from rhIL-2 (TF1 + IL-2Rβ)” value in experiment [3] is roughly 1370 fold.

B7: 1H3-hIgG4-L6-hIL-2 (R38D/I92D) (other)
heavy: EVQLVESGGGLVQPGRSLKLSCAVSGFTFSDYAMAWVRQAPKKGLEWVATISYDGSRTYYRDSVKGRFTISRDNAKITLYLQMDSLRSEDTATYYCARHGSGYFDYWGQGVMVTVSSASTKGPSVFPLAPCSRSTSESTAALGCLVKDYFPEPVTVSWNSGALTSGVHTFPAVLQSSGLYSLSSVVTVPSSSLGTKTYTCNVDHKPSNTKVDKRV[not shown - about 350 residues with a human IgG4 Fc and changes]
light: DTVLTQSPALAVSPGERVTISCRASESVRTGVHWYQQKPGQQPKLLIYGASNLESGVPARFSGSGSGTDFTLTIDPVEADDTATYFCQQSWNDPFTFGSGTKLEIKRTVAAPSVFIFPPSDEQLKSGTASVVCLLNNFYPREAKVQWKVDNALQSGNSQESVTEQDSKDSTYSLSSTLTLSKADYEKHKVYACEVTHQGLSSPVTKSFNRGEC
Regarding B7, in experiment [1], the “Fold decrease” value is roughly 1430 fold. Moreover, in experiment [2], the “Fold change from rhIL-2 (NK-92)” value turned out to be 190 fold. Moreover, the “Fold change from rhIL-2 (TF1 + IL-2Rβ)” value in experiment [3] is 437 fold.

(Values after US20240076343A1 (CEPHALON, published 2024).)
